Measurements: the supplement of paper PMC3334620
Whole data set: some 33,000 sequences, median “E-score (-0.5 to 0.5)” near -0.035, cut for the highest 2% near 0.35. The list shows a part of the results.

Target: T1, Pdr3 (UniProt P33200)
T1 sequence: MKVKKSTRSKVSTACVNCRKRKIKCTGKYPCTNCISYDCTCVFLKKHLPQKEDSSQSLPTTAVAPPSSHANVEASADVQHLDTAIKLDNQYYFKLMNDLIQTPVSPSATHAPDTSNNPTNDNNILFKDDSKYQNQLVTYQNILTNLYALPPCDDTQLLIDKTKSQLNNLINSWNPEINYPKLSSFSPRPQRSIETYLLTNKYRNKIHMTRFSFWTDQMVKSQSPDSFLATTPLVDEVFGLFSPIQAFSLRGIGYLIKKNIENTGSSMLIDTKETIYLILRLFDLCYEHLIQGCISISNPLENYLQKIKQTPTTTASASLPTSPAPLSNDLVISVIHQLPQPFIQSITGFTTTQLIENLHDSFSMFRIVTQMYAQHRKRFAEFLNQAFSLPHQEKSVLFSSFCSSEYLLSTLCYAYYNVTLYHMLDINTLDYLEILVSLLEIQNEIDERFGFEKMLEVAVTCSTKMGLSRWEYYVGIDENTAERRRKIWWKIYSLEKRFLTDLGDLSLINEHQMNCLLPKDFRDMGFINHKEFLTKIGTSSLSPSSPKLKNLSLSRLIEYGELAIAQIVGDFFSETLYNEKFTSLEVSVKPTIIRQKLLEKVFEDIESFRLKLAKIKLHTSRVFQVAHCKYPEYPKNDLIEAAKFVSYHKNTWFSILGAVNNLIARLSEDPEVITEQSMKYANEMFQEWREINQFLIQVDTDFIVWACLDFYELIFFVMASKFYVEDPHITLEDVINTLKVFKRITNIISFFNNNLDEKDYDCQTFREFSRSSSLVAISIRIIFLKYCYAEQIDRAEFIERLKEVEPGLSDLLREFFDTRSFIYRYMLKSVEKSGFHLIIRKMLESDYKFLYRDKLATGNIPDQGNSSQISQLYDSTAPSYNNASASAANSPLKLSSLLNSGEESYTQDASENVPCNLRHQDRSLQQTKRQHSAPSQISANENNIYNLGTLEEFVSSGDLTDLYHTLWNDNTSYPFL
Assay: PBM E-score (8-mer binding enrichment) (E-score (-0.5 to 0.5)); higher = stronger / more preferred TF binding; most listed sequences are background and not binding sites
Settings: protein concentration: 200 nM; construct: GST-full length
How it was run: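 Universal all-10-mer Agilent arrays, fresh or stripped once, were converted to double-stranded form by primer extension. GST-tagged yeast transcription factors from PURExpress in vitro transcription/translation, full-length or DNA-binding domain only, were applied at about 100-200 nM and detected with fluorescent anti-GST. After masliner normalisation, the Universal PBM Analysis Suite scored each ungapped eight-base word together with its reverse complement by E-score.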

Sequence | PBM E-score
CCAGCTCA | -0.1
GGGGCGTA | -0.114
CACTACCG | -0.0568
CCGGCTGA | 0.311
TCGACACA | -0.116
ATAGAGTA | -0.14
GGTGCGAA | -0.0336
ACAAGCCG | 0.174
GAACACGA | -0.0359
GGTTCAAC | 0.0125
AAGATAGT | 0.107
CCCAGATA | -0.121
ATTGACCG | 0.0868
ATCTTATA | -0.0171
ACCATTCA | -0.0491
CAACGCGG | 0.271
ACAGCCGC | -0.0218
GAAGGCCA | -0.151
AATAACAA | -0.0439
CACTACTG | -0.149
AAGAAAAG | 0.0411
TCGTACAA | -0.211
CCAAGCCA | -0.245
CGTTCATC | -0.0152
ATACGTAC | -0.101

Sequence | PBM E-score
ATTACAGA | -0.00478
AAGAAGTG | 0.0153
CAACGTAA | -0.261
ATAATTGC | -0.0324
CGATAAGA | 0.153
CGTCTGAG | 0.00682
GGTGGCAA | -0.0928
AGAGTTGG | -0.138
CAAGGTAC | -0.25
CATGTCTC | 0.0767
CCTACCTC | -0.0483
GTCGGGAA | 0.176
CCCCCGTA | -0.278
CTACTGAA | -0.0687
TACTTCAA | -0.129
CGGGCAAG | 0.125
CCAAATTC | -0.0566
ATTGTAGG | 0.0323
CCCTGGAG | -0.267
AGGGGACA | -0.0627
CTATATTA | 0.0664
ATGACCCA | -0.0734
CCCATAGC | -0.0517
AAGGAAGA | -0.2
ACCTGCTG | 0.0408

Sequence | PBM E-score
AAACCCGA | 0.243
AGGCATGC | 0.0433
CCCATGTA | -0.114
CGCGAGAC | -0.0718
AGGAGTTC | -0.115
AACTTCAG | -0.101
GGTTGAAA | -0.0161
AAGTGTAC | -0.178
GTGATTGA | 0.0101
CGCAAACC | -0.0602
CCATATTA | 0.0462
GAGATAGA | 0.00371
TCCATGGA | 0.423
GGCCTCTA | -0.32
TAGTGTAA | -0.134
TATGCCCA | -0.124
AAATGCAC | 0.0895
ATCAAGTG | -0.0714
CGGGGGAC | 0.0849
CAAAGTAG | -0.174
AATCTCCA | -0.15
ACTATAGG | -0.179
ACTTCACC | 0.106
AGCTTATA | -0.251
CCCTGAGC | 0.00121

Sequence | PBM E-score
CATTGGAA | -0.134
ACCATCAG | -0.0741
CTGGCCTC | 0.027
CCTCTAAG | -0.261
GGGCGTAA | -0.122
GACTTCTA | -0.24
AGGCAGAC | -0.248
ACTCGACT | -0.184
GAGCCCAC | -0.0132
CCTGAACA | -0.0865
ACGGTGGA | -0.1
CCTAAGTC | -0.237
AGTGAAAT | -0.0987
CTAGCTGA | -0.165
AGTTATCC | 0.234
TGCGGGAA | 0.313
GCTCAACC | -0.0735
GAAATTGA | 0.0788
AGTAAGAA | 0.0631
AAGAGAAA | -0.0428
ACGTGTCC | 0.0947
CCAAACAC | -0.0593
GCGTGGGA | -0.113
AACCGCTG | -0.114
AATACCAG | 0.0559

Sequence | PBM E-score
GCATTCTA | -0.127
CGAAAGGA | 0.19
AAAGCACG | -0.184
CACCCCCA | -0.165
AAGACCTG | -0.155
AAAGCGAG | 0.143
GGTGCAAA | -0.105
ATACCAGA | -0.0324
ACCAGACG | -0.157
GGGCCGGA | 0.318
ACGTACGA | -0.133
ATGGCGAG | -0.123
CAGCCGTA | -0.0833
AGTATGGA | -0.0283
AGCCCGTG | 0.0859
CACGATGA | 0.0147
AATCAGGC | 0.00832
GTTAAAGA | -0.0407
ACCCTCCT | -0.222
GATTGAGC | 0.0166
CAGTAGCA | -0.0689
ATCCAACA | 0.0207
CCTGTATC | 0.026
GCCGAGTA | 0.191
ATGTTGCG | 0.091

Sequence | PBM E-score
CATACTAG | 0.0883
AGATCAAC | -0.0482
AGGTACCA | -0.0974
ATCTAAGC | -0.3
ACGAGGCC | -0.0311
AACGGGGG | -0.142
ATGGTGTG | -0.197
ACTTCCAC | 0.0382
GCTTTCAC | -0.107
AAGGGAAA | -0.124
CCGAAGCG | 0.228
AGAGTATC | -0.0375
GGCTTACA | -0.0987
TACGTATA | -0.13
AAGGGACA | -0.254
GGATGGCA | 0.228
GGGGCGAA | 0.141
AAAGCAAT | 0.0266
AACACAAC | 0.00023
TGTCCTAA | -0.181
AAATACCA | -0.109
GAAGCTAC | -0.0903
CCCACACG | 0.164
AGGTTTTG | -0.197
CACCCCCG | 0.0245

Sequence | PBM E-score
ACCGGTGA | 0.0804
GCCCTCCA | -0.179
ATCTACCC | 0.179
CCATTACG | -0.0613
ACAACTCT | -0.166
ACAACTGA | -0.111
ACTGTGCG | 0.0144
ATTGTGTG | -0.041
ACCTCCGA | 0.0535
AACTCAGC | -0.0255
CGTAGGGA | -0.0724
CAATGAAA | -0.107
AGTAACCG | -0.0132
CGTTGGAA | 0.00011
AACATTGC | -0.0931
CCTCCCCA | 0.00142
AGCAAGGG | 0.0741
GAGCCGGA | 0.362
AAAGAACG | 0.108
CTTTGTAA | -0.146
AACGTACC | -0.0537
ACCATTCC | 0.315
